# Over roughly 33,000 sequences, “E-score (dimensionless, -0.5 to 0.5)” has its median near -0.058; the highest 2% begin near 0.35. Some of the results follow.
# Test system: MvaT
# Assay: PBM 8-mer E-score (mean of HK and ME arrays) (E-score (dimensionless, -0.5 to 0.5)); higher = stronger relative binding preference; most listed sequences are background and not binding sites
# In short: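 Reported values are rank-based E-scores, taken as the mean of two universal arrays and parsed with a custom script. Each 8-mer score falls between -0.5 and 0.5. The arrays, ME and HK, were double-stranded 60-mers with a constant 25-mer primer region and a variable 35-mer region covering all 8-mers. They were probed, by an earlier protocol, with full-length P. aeruginosa MvaT carrying an N-terminal glutathione S-transferase fusion.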
row,Sequence,PBM 8-mer E-score
1,CGTAAGAG,-0.0608
2,CGTTCGTA,-0.165
3,ACGTACCG,-0.183
4,GAATGATC,-0.135
5,AGGTACCT,-0.172
6,CCTGAATC,-0.0962
7,TATGGAGA,0.004
8,CACTACTA,0.226
9,ATTCGCAA,0.133
10,AAAGGCAA,0.0705
11,CACCCATG,-0.206
12,GTATCCCA,0.0146
13,GGGGTCTA,-0.333
14,GACCTTGC,-0.173
15,GCATAGCA,-0.106
16,AAGTTTAT,0.358
17,AGGTGCAC,-0.0462
18,AATATAGA,0.365
19,AAACTCCT,0.0562
20,ACAGAAAA,0.0557
21,AGATCATA,0.177
22,CCGCAAGA,-0.078
23,CCTCATCA,-0.156
24,TCGATTCA,0.0417
25,CCCACGCC,-0.22

row,Sequence,PBM 8-mer E-score
1,ATACGAAT,0.127
2,GTTACAGA,0.153
3,ATCTCTCG,-0.0594
4,GCAGTTAC,0.171
5,CATTATAG,0.277
6,GACGCCTC,-0.249
7,GGGAATTA,0.129
8,CACTCTAA,0.0768
9,ACCGTTAC,0.0297
10,AAGAAGGC,-0.299
11,CGTAGCTC,-0.151
12,CATTTAAG,0.287
13,GTAAAGAA,0.0617
14,CGAATGAC,0.0466
15,CCCAATTC,0.00595
16,AGTAAGGA,0.0652
17,TAACCCAA,0.16
18,CGTCGAGC,-0.191
19,TCATGGCA,-0.0856
20,GGCAGGGA,-0.242
21,ACGCGACC,-0.031
22,CAATCGCG,-0.0474
23,AAGGTAAG,-0.105
24,TATGCGCA,0.189
25,GTGACTTA,0.0291

row,Sequence,PBM 8-mer E-score
1,ACGCCTGA,-0.109
2,CATTTGGC,-0.145
3,CGCAAGCC,-0.179
4,ACTTTCCT,0.0961
5,GACGGCAA,-0.16
6,ATGACTTC,-0.0129
7,GACCGAAC,-0.217
8,ATGAGACA,0.0905
9,GCATCGCC,-0.38
10,AGTGCGTG,0.0803
11,ACACGTCG,-0.116
12,GAGTGGCC,-0.259
13,AATGGTTC,-0.0396
14,GGCAAAGA,0.02
15,CCTGCGTA,-0.182
16,AACTGTTA,0.301
17,AAGGTTAT,0.115
18,AACCGAGT,-0.0818
19,CAAAGCTG,-0.196
20,ATATGAGC,0.161
21,GGCATACC,-0.156
22,CAATAAGC,0.171
23,AGTAGTAC,0.144
24,GAAAAGAC,-0.00794
25,CGCCTTAC,-0.234

row,Sequence,PBM 8-mer E-score
1,TCTGCTCA,-0.118
2,CAAAAGGG,-0.119
3,GAAAAAAA,0.0648
4,CCGGTTTC,-0.266
5,AGGCCCTG,-0.126
6,CTAAGACA,-0.123
7,GACAAATC,-0.0221
8,GACATTCA,-0.0871
9,AGCAGTCC,-0.184
10,CGCGCTGA,-0.13
11,ATAGATAC,0.1
12,GTACACGA,-0.122
13,CCGTATGA,-0.119
14,TTACTGAA,0.182
15,AAGCTCTA,-0.217
16,ATCACGGG,-0.203
17,CGACGGCA,-0.163
18,GGTAATTA,0.286
19,GACATGAC,0.0334
20,CCGAATTC,0.0781
21,GGAAGTAA,0.206
22,CGCTGGAA,-0.092
23,GCGTGACA,-0.0952
24,CTGCTATA,0.131
25,CCTAAGCA,-0.246

row,Sequence,PBM 8-mer E-score
1,ACCATGTC,-0.156
2,CGGTTTTA,0.132
3,CATTCCCC,-0.183
4,CAATCGAG,-0.215
5,GAAATGCA,-0.0166
6,GCGCTGCC,-0.4
7,GCCTCCCA,-0.29
8,GAACGACA,-0.0982
9,GGCAGGAC,-0.285
10,CACTGTAC,0.0194
11,CATAATGC,0.111
12,ACGTTGCT,0.0234
13,GCACCGAC,-0.201
14,GATTTACA,0.072
15,AGTTTTTG,0.158
16,GGATTAGA,0.0862
17,AGATAACG,0.0641
18,CACTACGA,-0.0417
19,GAAGCTGA,-0.135
20,CCACCGGG,-0.309
21,CATTTAAA,0.386
22,CCGGTTTA,-0.0258
23,AGGCCAGA,-0.201
24,GTCATAAC,0.0325
25,CATCACTA,-0.0133

row,Sequence,PBM 8-mer E-score
1,AAAAGTGC,0.142
2,GAATCATA,0.151
3,CTAGACGC,-0.196
4,CTAAAGAG,0.0099
5,AACCCGCG,-0.188
6,AACATGTG,0.0114
7,CGGTGACA,-0.0754
8,CATAGCAC,-0.0427
9,CCCCGACG,-0.194
10,CTAAACAG,0.0489
11,CCGTACCA,-0.208
12,ATTACTTA,0.334
13,CTTATTTC,0.291
14,CGTTACCA,0.0947
15,CGCAGACC,-0.137
16,ATCTTCTG,0.00225
17,CCCGACGC,-0.329
18,AGATAGCC,-0.229
19,CCGATAGC,-0.177
20,AGGAGTAT,0.0184
21,AGTAACGG,0.0915
22,GGGATCAC,-0.277
23,CGGCCCTC,-0.304
24,AACATGGA,0.118
25,GGGATAGA,-0.169

row,Sequence,PBM 8-mer E-score
1,GATGTGCC,-0.204
2,GACCTGGC,-0.217
3,CAGAATTC,0.0762
4,AACCCACA,0.171
5,CCCGATCA,-0.205
6,CACAGTGG,-0.169
7,GGACCGAC,-0.126
8,AAGAAGAC,-0.0906
9,GCACTCGC,-0.134
10,GCAGCGGA,-0.124
11,AAGTGACA,0.0308
12,CACCGCAA,-0.173
13,GCTCCTCC,-0.391
14,AGACAAAA,0.00125
15,ATGCTGGA,-0.153
16,GAGCTTCC,-0.17
17,GGTGTTAC,0.046
18,AACACGAC,-0.000712
19,AATCTCAA,0.141
20,CCACCTCA,-0.174
21,ACTTAGCA,-0.0524
22,CACAGGAA,0.0166
23,ACAATCGG,-0.0629
24,GCATTGAC,-0.131
25,GGGTGTGA,-0.197

row,Sequence,PBM 8-mer E-score
1,CCTCCGCA,-0.268
2,CATCCATA,0.0526
3,GCTAGCAC,-0.264
4,TACCCATA,0.161
5,CGTGTTGC,-0.1
6,CGATCGCG,-0.0502
7,ACGGACAA,0.0196
8,AGCAAACT,0.139
9,AGTAACTG,0.251
10,AAAATAGC,0.0928
11,CAGCCTCA,-0.204
12,ACTTTTTC,0.0911
13,CCACGTCC,-0.206
14,ACGACTTC,-0.178
15,GGCGTACA,0.0736
16,ATATTCAC,0.282
17,CTGGGCAA,-0.204
18,CAATTTAA,0.366
19,ACTGGTAG,-0.15
20,CACTTATC,0.14
21,AAGACGCG,-0.0462
22,ACATCCGA,-0.00247
23,TAATGACA,0.169
24,ACACAATG,0.0203
25,CAAGGGGC,-0.378

row,Sequence,PBM 8-mer E-score
1,GAGGCACC,-0.229
2,ACCTGTTG,-0.18
3,CGGTTCTC,-0.0601
4,CCGCTACG,-0.312
5,ACAGCATG,-0.0768
6,AATAGCCT,-0.0939
7,CCAGTGTA,-0.0857
8,GCTTTAGA,0.0158
9,AGGATATA,0.262
10,GTCGGACA,-0.0745
11,TGGAGACA,-0.178
12,CAAGCAAA,0.0561
13,CCATCTGA,-0.117
14,TTCAAAAA,0.225
15,TAAGCTTA,0.0997
16,CACACATC,-0.00938
17,ACTGCATG,-0.0123
18,TCAGTTAA,0.189
19,ACAGCACT,-0.0738
20,TATACATA,0.389
21,CGAAGCAC,-0.198
22,AAAACTGG,0.0776
23,ACCTCGCC,-0.118
24,CAATGTTA,0.246
25,CGGGACAC,-0.176

row,Sequence,PBM 8-mer E-score
1,CACACAAG,0.0519
2,AACTAATT,0.401
3,CGTCGTTA,0.0543
4,GCTTTCTA,-0.0117
5,GGCTGTTA,0.0673
6,GTAGAACA,-0.0137
7,GGCGACCA,-0.192
8,CTTCATCA,-0.0943
9,CGATAGGC,-0.128
10,ATCAGGGC,-0.178
11,GCGTGCGA,-0.0466
12,GGAGGAAA,-0.193
13,GTGCTGCA,-0.102
14,CCCGGAGA,-0.204
15,CGTGAAAA,0.176
16,GCTGACGA,-0.28
17,AGGTATCC,-0.0858
18,ACATACAC,0.214
19,CAAGAATG,-0.0553
20,GATAACAC,0.242
21,CAGAACTC,-0.0958
22,AATGATGG,0.0399
23,AATTCCCG,0.153
24,AGGGACTA,-0.23
25,ATGGTGAC,-0.189

row,Sequence,PBM 8-mer E-score
1,CCCTATAG,-0.161
2,GTAGTAAC,0.214
3,AACGCCGC,-0.172
4,CTTACAAC,0.15
5,CTGAGCAG,-0.334
6,CGTTTACC,-0.036
7,GATCCAAC,-0.175
8,AGAATATG,0.277
9,GCCGTCAC,-0.163
10,CTATTCTA,0.131
11,AACTTCCT,0.0455
12,CAGTAGAA,-0.097
13,CGGGTGAC,-0.217
14,GCGACGCC,-0.28
15,ACTGGGGG,-0.221
16,AATTGCGG,0.154
17,GTTCGAGA,0.00197
18,ATAAAGCC,-0.0518
19,CACAAGGA,-0.13
20,CCTAGGGA,-0.298
21,GAGAATGC,-0.17
22,CCCCAAGC,-0.253
23,CGGCCGAG,-0.0834
24,ACAACGCC,-0.0268
25,TCAATAGA,-0.00661

row,Sequence,PBM 8-mer E-score
1,TACATAAA,0.307
2,GAGCGCCC,-0.226
3,CACAATTC,0.0962
4,AGCGAGTC,-0.251
5,AGTGCAAG,0.136
6,AACCGAGC,-0.141
7,ATGGCCTC,-0.323
8,GCCCACGA,-0.205
9,CTGGCAAA,-0.0275
10,ATCTTCGA,0.0255
11,AATACCCG,0.231
12,ACTATGTA,0.304
13,ATGACTTG,0.119
14,ACTCCAAT,0.172
15,GCGTGAAA,0.0677
16,TCCTCCAA,-0.188
17,CTGAACTC,-0.0636
18,ATGACTGC,-0.107
19,GAGTGTGC,-0.0286
20,GTGCGATA,0.0548
21,GCTGGACA,-0.23
22,AAAAAACC,0.116
23,AGAGCCAA,-0.232
24,TGGGACCA,-0.28
25,AAGTGCCG,-0.0563

row,Sequence,PBM 8-mer E-score
1,CTAAGACC,-0.0719
2,CTCCATAA,0.0367
3,AGTGCCAC,-0.0989
4,AAAACCGG,-0.0259
5,AAGCTGGG,-0.0779
6,AGATGTCC,-0.14
7,CAGGAAGC,-0.181
8,GCGTGCAA,-0.0595
9,ACTAAATG,0.242
10,GAGTAAAA,0.192
11,ACCAAGAC,-0.0948
12,ATCCGAAA,0.125
13,GGCAGGAA,-0.137
14,GTACGGTA,0.00151
15,CATATGAG,0.144
16,TAGCCTAA,-0.00611
17,GTAGGGAC,-0.235
18,ACTGGTGC,0.0352
19,GAGGCGGC,-0.248
20,TCAATTCA,0.197
21,GCCTCCTA,-0.174
22,GGGCGAGA,-0.0425
23,CCCTTCCC,-0.198
24,CGCTGAAA,0.056
25,AGCTATAT,0.328

row,Sequence,PBM 8-mer E-score
1,AGTCTCCC,-0.184
2,AGCGGACG,-0.163
3,CTCTTCGA,-0.216
4,CCGCGAGG,-0.328
5,CCAACGGC,-0.262
6,CGGCGGTA,-0.0182
7,GGGAAGGA,-0.231
8,GTTATAGA,0.222
9,AAAAAATG,0.0805
10,ATGGAGCG,-0.275
11,ATCTAACA,0.16
12,GGAGTCCC,-0.244
13,CCTATACG,-0.0414
14,TAGTTCAA,0.249
15,AGTGGTCG,-0.154
16,TAGTGAGA,0.0304
17,AACTCACG,-0.066
18,CGTGAATA,0.0728
19,GACCTTAC,-0.126
